Data published in PubChem BioAssay AID602310 (National Center for Advancing Translational Sciences (NCATS), 2012).
About 310 (0.076%) of roughly 410,000 compounds were called active. The shares of active, inactive and inconclusive entries below differ from those in the screen. The call rests on the fitted dose curve; in most records, active means well fitted curve in the direction sought with a large enough effect; inconclusive means small, poorly fitted or top-dose-only effect; inactive means flat fitted curve, though single readings scatter. Potencies beside an inconclusive call are fits to weak or partial responses and may not hold up.

The compounds below were run against DNA dC->dU-editing enzyme APOBEC-3G (Homo sapiens) (UniProt Q9HC16) (assay: qHTS for Inhibitors of Vif-A3G Interactions: qHTS). Conditions: HeLa A3G-eYFP + Vif (tagged APOBEC3G with the HIV-1 protein that degrades it), YFP fluorescence, overnight; series mostly up to 46.1 µM.
UniProt Q9HC16, sequence (Q9HC16 whole entry, looked up): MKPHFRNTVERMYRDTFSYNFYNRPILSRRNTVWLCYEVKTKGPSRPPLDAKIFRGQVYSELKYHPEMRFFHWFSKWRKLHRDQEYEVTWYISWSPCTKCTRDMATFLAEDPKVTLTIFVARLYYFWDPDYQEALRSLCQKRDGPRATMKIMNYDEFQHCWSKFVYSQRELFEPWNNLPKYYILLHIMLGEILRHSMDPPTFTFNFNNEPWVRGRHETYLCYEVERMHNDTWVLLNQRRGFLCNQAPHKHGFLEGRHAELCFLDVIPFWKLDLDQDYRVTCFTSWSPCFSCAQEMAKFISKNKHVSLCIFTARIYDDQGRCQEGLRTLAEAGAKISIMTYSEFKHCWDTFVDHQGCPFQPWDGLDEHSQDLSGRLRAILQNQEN
Method in brief: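 Read-out is eYFP fluorescence (Ex 488/Em 500-530) from Vif-expressing HeLa A3G-eYFP cells; more signal means A3G escaped Vif-mediated degradation. Cells plated overnight, compound pinned in, incubated overnight at 37 deg C.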
Further: nearly all actives have a fitted effect of over 60% in size.
Potency means the concentration at half of the fitted maximal effect; tags describe the fitted curve by direction and shape.

SMILES	Potency
O=S(=O)(Nc1cccc2nsnc12)c1ccccc1	inactive
CCCN(CC(=O)Nc1ccc(Cl)cc1Cl)C(=O)/C=C/c1cc(OC)ccc1OC	inactive
COc1ccc(-c2cc(N)n(S(=O)(=O)c3c(F)c(F)c(F)c(F)c3F)n2)cc1OC	inconclusive: 3.16 µM [inhibitor, partial curve, poor fit]
COc1cc(/C=C2\SC(=S)N(NC(=O)c3ccc(O)c(OC)c3)C2=O)ccc1O	inactive
CN(C)c1ccc(/C=C/c2cccc3cc4ccccc4nc23)cc1	inconclusive: 3.16 µM [inhibitor, single point]
Cc1ccc(C)c(NC(=O)CN(C)C(=O)[C@@H](NC(=O)c2ccc(C(C)(C)C)cc2)C(C)C)c1	inconclusive: 22.4 µM [inhibitor, single point]
CCOC(=O)c1c(C)[nH]c(C(=O)OCC(=O)Nc2sccc2C(N)=O)c1C	inactive
O=C(/C=C/c1ccccc1)c1ccc(NC2=NCCCS2)cc1	inconclusive: 12.6 µM [inhibitor, single point]
COc1ccc(C2CC(=O)c3c(C)nc(N4CCN(C=O)CC4)nc3C2)c(OC)c1 (stereo not drawn)	inconclusive: 17.8 µM [inhibitor, single point]
C=C1C(=O)c2sccc2C(c2ccc(OC)c(OC)c2)C1COC(C)=O (stereo not drawn)	inconclusive: 2.82 µM [inhibitor, full curve]
O=C1/C(=C/c2cccnc2)CCC/C1=C\c1cccnc1	inconclusive: 3.16 µM [inhibitor, partial curve, poor fit]
N#Cc1nc(COc2ccc(-c3ccccc3)cc2)oc1NCCCN1CCOCC1	inactive
S=c1[nH]c(=S)c2[nH]cnc2[nH]1	inactive
Cc1ccc(/C=C2\NC(=S)NC2=O)cc1[N+](=O)[O-]	inactive
Cc1nc2ccc(C(=O)N3c4ccccc4CC3C)cc2s1 (stereo not drawn)	inconclusive: 11.2 µM [inhibitor, partial curve, poor fit]
C=C(C)CNC(=S)N/N=C1\CCCCc2ccccc21	inactive
CN1CSC2=C(C#N)C(c3cccc(OCc4ccccc4)c3)CC(=O)N2C1 (stereo not drawn)	inconclusive: 35.5 µM [inhibitor, single point]
COc1ccc(/C=C(\C#N)c2c[nH]c3ccccc23)cc1	inconclusive: 2.24 µM [inhibitor, partial curve, poor fit]
Cc1ccc(/C=N/NC(=O)CCn2nc(C)cc2C)c(C)c1	inconclusive: 12.6 µM [inhibitor, single point]
COc1ccc(Cl)cc1NC(=O)CSc1c2c(nc3ccccc13)CCC2	inactive
O=C(OCC1CCCO1)c1ccc2c(c1)N(Cc1cccc(Cl)c1)C(=O)c1ccccc1S2(=O)=O (stereo not drawn)	inactive
COc1ccc(Cc2nnc(NC(=O)c3ccc(OC)c(OC)c3)s2)cc1	inactive
O=C(Cc1ccccc1)NCc1n[nH]c(=S)n1-c1ccccc1	inactive
COc1ccc(C(=O)c2no[n+]([O-])c2C(=O)c2ccc(OC)cc2)cc1	inconclusive: 3.16 µM [inhibitor, partial curve, poor fit]

SMILES	Potency
CCN(CC(=O)NCc1cccs1)C(=O)c1ccc([N+](=O)[O-])o1	inactive
COC(=O)COc1ccc(-c2nccc(-c3ccc(Br)cc3)n2)cc1	inactive
O=Nc1c(O)[nH]c2ccc(Cl)cc12	inactive
COc1cc(NC(=O)C2CCN(S(=O)(=O)c3c(C)noc3/C=C/c3c(C)cc(C)cc3C)CC2)cc(OC)c1	inactive
Cc1cc(N)cc(C)c1-c1c(Br)cc(N)cc1Br	inconclusive: 3.55 µM [inhibitor, full curve, poor fit]
C=C1[C@@H](O)[C@H](Cc2ccccc2)N(Cc2ccccc2Br)S1(=O)=O	inconclusive: 14.1 µM [inhibitor, single point]
Cc1cccc(Nc2nc(N)nc(-c3oc4ccccc4c3C)n2)c1	inconclusive: 7.08 µM [inhibitor, partial curve, poor fit]
CCOc1ccc(N(Cc2ccc(C(=O)O)cc2)S(=O)(=O)c2ccc(C)cc2)cc1	inconclusive: 3.55 µM [inhibitor, full curve]
O=C(Nc1cccc(-c2nc3ccccc3[nH]2)c1)c1cccc(NC(=O)c2ccco2)c1	inconclusive: 28.2 µM [inhibitor, single point]
CCOc1ccc(CN2C(=O)c3ccccc3Sc3ccc(C(=O)NC4CCC(C)CC4)cc32)cc1 (stereo not drawn)	inactive
Oc1c(C(Nc2ccccn2)c2ccccn2)ccc2cccnc12 (stereo not drawn)	inactive
O=C1N/C(=N\N=C\c2ccccn2)SC1Cc1cccc(SC(F)F)c1 (stereo not drawn)	inconclusive: 35.5 µM [inhibitor, single point]
Cc1ccc(NC(=O)CN2C(=O)c3ccccc3Sc3ncccc32)c(C)c1	inactive
CCOc1ccc(C(=O)Nc2cc(-c3nc4ccccc4[nH]3)ccc2Cl)cc1[N+](=O)[O-]	active: 12.6 µM
CCOCCCn1c(=S)[nH]c2cc(C(=O)NCCc3ccc(OC)c(OC)c3)ccc2c1=O	inactive
O=C(CCl)Nc1c[nH]c(=O)[nH]c1=O	inconclusive: 14.1 µM [inhibitor, single point]
O=c1c(O)c(-c2cccs2)oc2ccccc12	inconclusive: 1 µM [inhibitor, full curve, poor fit]
N=C(N)SCc1cccc2ccccc12	inconclusive: 5.62 µM [inhibitor, single point]
COc1ccc(COn2c(=O)c(C)[n+]([O-])c3ccccc32)cc1OC	inconclusive: 17.8 µM [inhibitor, partial curve, poor fit]
CCOc1ccc2c(c1)OC(c1ccc(C)cc1)(C(F)(F)F)NC2=O (stereo not drawn)	inconclusive: 0.891 µM [inhibitor, full curve, poor fit]
C=C(c1ccc(O)cc1)c1ccc(O)cc1	inconclusive: 10 µM [inhibitor, partial curve, poor fit]
O=C(C[n+]1cccc2cccc(O)c21)c1ccccc1	inactive
Cc1cccc(NCc2ccc(O)c3ncccc23)c1C	inactive
CCOC(=O)c1c(-c2ccc(OC)cc2)csc1/N=C/C1C(=O)CCCC1=O	inconclusive: 31.6 µM [inhibitor, single point]
